Data published in the GPR68 mutational scans of Howard et al. (2025).

B1: GPR68, Q15743 (parent)
chain: MGNITADNSSMSCTIDHTIHQTLAPVVYVTVLVVGFPANCLSLYFGYLQIKARNELGVYLCNLTVADLFYICSLPFWLQYVLQHDNWSHGDLSCQVCGILLYENIYISVGFLCCISVDRYLAVAHPFRFHQFRTLKAAVGVSVVIWAKELLTSIYFLMHEEVIEDENQHRVCFEHYPIQAWQRAINYYRFLVGFLFPICLLLASYQGILRAVRRSHGTQKSRKDQIQRLVLSTVVIFLACFLPYHVLLLVRSVWEASCDFAKGVFNAYHFSLLLTSFNCVADPVLYCFVSETTHRDLARLRGACLAFLTCSRTGRAREAYPLGAPEASGKSGAQGEEPELLTKLHPAFQTPNSPGSGGFPTGRLA

Key:
[1] = variants of: B1; assay: cAMP reporter score (Enrich2 score, wild type = 0); higher = more signal; HEK293T, FACS bins
[2] = variants of: B1; assay: surface expression score (Enrich2 score, wild type = 0); higher = more signal; HEK293T, FACS bins

Row | Variant | cAMP reporter score ([1]; pH 5.5) | cAMP reporter score ([1]; pH 6, modulator: ogerin) | cAMP reporter score ([1]; pH 6.5, modulator: ogerin) | surface expression score [2] | cAMP reporter score ([1]; pH 6)
1 | Q206W | 0.27 | 1.11 | 1.92 | 1.57 | –
2 | Q206K | 0.01 | -0.829 | -0.371 | -0.121 | –
3 | Q206G | 0.711 | 0.311 | 1.45 | 1.45 | -0.146
4 | Q206P | -0.156 | -0.674 | -0.438 | – | -1.21
5 | Q206E | 0.119 | 0.12 | -0.501 | -1.6 | -0.179
6 | Q206M | 0.132 | 0.506 | 0.385 | 0.826 | –
7 | Q206A | 1.68 | 2.2 | 1.08 | 3.27 | –
8 | Q206T | -0.171 | 0.012 | 0.257 | -0.022 | 0.273
9 | Q206N | 0.992 | 1.34 | 1.06 | -0.285 | 1.75
10 | Q206D | 0.279 | 0.106 | -0.846 | -0.338 | -0.326
11 | Q206S | -0.322 | -0.1 | 1.37 | 0.52 | –
12 | Q206I | 0.095 | 0.465 | 0.498 | 1.54 | -0.248
13 | Q206R | 2.36 | -0.439 | 0.037 | 0.672 | 1.48
14 | Q206C | 0.476 | 0.24 | 0.121 | 1.22 | -0.105
15 | Q206V | 1.69 | 1.75 | 1.87 | 2.1 | –
16 | Q206H | 0.766 | 1.11 | 1.58 | 1.23 | 1.19
17 | Q206F | -0.02 | 0.214 | -0.26 | 1.03 | -0.96
18 | P197_I198insGS | -1.66 | -2.07 | -1.59 | -2.91 | -1.48
19 | Y205_Q206insGS | -1.3 | – | -1.26 | -2.26 | -0.632
20 | L195_F196insGS | -1.91 | – | -1.25 | -3.04 | -1.1
21 | G193_F194insG | -1.94 | -0.645 | -1.14 | -2.93 | 0.05
22 | F196_I198del | -1.54 | – | -1.81 | -2.81 | –

Row | Variant | cAMP reporter score ([1]; pH 5.5) | cAMP reporter score ([1]; pH 6, modulator: ogerin) | cAMP reporter score ([1]; pH 6.5, modulator: ogerin) | surface expression score [2] | cAMP reporter score ([1]; pH 6)
23 | L191_V192insG | -1.42 | -2.13 | -1.75 | -2.92 | -2.17
24 | L202_A203insGS | -0.902 | -1.5 | -1.32 | -2 | -1.35
25 | Y205del | -2.13 | – | -1.96 | -2.73 | -1.74
26 | G207C | 0.227 | -0.641 | -0.696 | -1.23 | -1.46
27 | G207H | -0.525 | -0.762 | -2.09 | -1.42 | -0.757
28 | G207D | -1.46 | -1.8 | -1.86 | -2.28 | -0.91
29 | G207E | -0.436 | -0.873 | -0.754 | -1.25 | -0.912
30 | G207F | -0.048 | -0.928 | -0.782 | – | -1.17
31 | G207A | 1.21 | 1.14 | 0.009 | 0.012 | 0.129
32 | F196G | -1.55 | -1.45 | -1.1 | -2.28 | -1.08
33 | F196S | -0.11 | -0.309 | -0.792 | -0.796 | -0.242
34 | F196A | -1.2 | -1.18 | -0.728 | -2.04 | -0.173
35 | F196K | -0.405 | – | -0.174 | – | -2.92
36 | F196L | -0.347 | -0.803 | -0.549 | 0.623 | -0.176
37 | F196D | -1.73 | – | -0.919 | -3.39 | -1.63
38 | F196C | -0.041 | -0.337 | -0.782 | -1.07 | -0.611
39 | F196T | -0.043 | 0.189 | -0.149 | -1.38 | –
40 | F196I | 1.34 | 0.547 | 1 | 1.3 | 2.66
41 | F196W | -0.2 | 0.043 | -0.692 | -2.09 | 0.247
42 | F196H | -1.45 | -1.76 | 0.181 | -1.44 | –
43 | F196N | -0.409 | – | -0.438 | – | –
44 | F196V | 1.99 | 1.99 | 3.38 | 2.52 | 3.52

Row | Variant | cAMP reporter score ([1]; pH 5.5) | cAMP reporter score ([1]; pH 6, modulator: ogerin) | cAMP reporter score ([1]; pH 6.5, modulator: ogerin) | surface expression score [2] | cAMP reporter score ([1]; pH 6)
45 | F196R | -1.22 | – | -0.048 | -3.09 | -1.26
46 | F196M | 0.611 | 0.877 | 0.636 | 0.66 | 0.968
47 | F196Y | -1.62 | -2.19 | -0.769 | – | –
48 | F196P | 0.364 | 0.18 | – | -2.81 | 0.988
49 | C199_L200insG | -1.36 | -0.88 | -1.35 | -2.11 | -1.23
50 | L202_S204del | -1.32 | -1.67 | -0.994 | -2.66 | –
51 | L200_L201del | -1.42 | -1.43 | -1.2 | -2.63 | -1.65
52 | L195A | 0.139 | -0.773 | – | -0.872 | –
53 | L195N | -1.98 | -0.992 | -0.907 | -1.66 | –
54 | L195T | 0.544 | 0.261 | -0.208 | -1.23 | -1.5
55 | L195I | -0.08 | 0.707 | 0.648 | -0.352 | 0.397
56 | L195F | 1.06 | 0.447 | -0.131 | -0.002 | -0.551
57 | L195H | -1.37 | -1.5 | -1.36 | -2.5 | –
58 | L195D | -1.1 | – | -0.436 | -2.66 | -1.95
59 | L195P | -2.85 | -0.616 | -0.469 | – | -0.309
60 | L195K | -0.576 | -1.27 | -2.16 | -2.56 | -0.352
61 | L195Q | -1.1 | -2.36 | – | -4.67 | –
62 | L195C | 0.538 | 1.2 | 1.46 | 0.379 | -0.189
63 | L195S | 0.211 | -0.059 | -1.32 | -1.18 | -0.942
64 | L195V | 0.347 | 0.634 | 0.551 | 0.085 | 0.879
65 | L195W | -0.034 | -0.096 | -0.374 | -2.16 | –

The least precise scores are not listed. Not listed are two conditions whose scores span a narrow range. In variant names, del marks residues removed and ins residues inserted between the two positions. For some assays here: The data file names ogerin without a concentration.
